Hit rate of the full screen: of about 310,000 compounds, about 2,200 (0.71%) showed an effect of 50% or more. Effects have a minus sign here. The list shows a part of the results.
The compounds below were run against human ether-à-go-go-related gene (hERG) potassium channel (human, UniProt Q12809) (assay: primary screen, population patch clamp on CHO cells stably expressing hERG).
Chain of human ether-à-go-go-related gene (hERG) potassium channel (Q12809 whole entry, looked up): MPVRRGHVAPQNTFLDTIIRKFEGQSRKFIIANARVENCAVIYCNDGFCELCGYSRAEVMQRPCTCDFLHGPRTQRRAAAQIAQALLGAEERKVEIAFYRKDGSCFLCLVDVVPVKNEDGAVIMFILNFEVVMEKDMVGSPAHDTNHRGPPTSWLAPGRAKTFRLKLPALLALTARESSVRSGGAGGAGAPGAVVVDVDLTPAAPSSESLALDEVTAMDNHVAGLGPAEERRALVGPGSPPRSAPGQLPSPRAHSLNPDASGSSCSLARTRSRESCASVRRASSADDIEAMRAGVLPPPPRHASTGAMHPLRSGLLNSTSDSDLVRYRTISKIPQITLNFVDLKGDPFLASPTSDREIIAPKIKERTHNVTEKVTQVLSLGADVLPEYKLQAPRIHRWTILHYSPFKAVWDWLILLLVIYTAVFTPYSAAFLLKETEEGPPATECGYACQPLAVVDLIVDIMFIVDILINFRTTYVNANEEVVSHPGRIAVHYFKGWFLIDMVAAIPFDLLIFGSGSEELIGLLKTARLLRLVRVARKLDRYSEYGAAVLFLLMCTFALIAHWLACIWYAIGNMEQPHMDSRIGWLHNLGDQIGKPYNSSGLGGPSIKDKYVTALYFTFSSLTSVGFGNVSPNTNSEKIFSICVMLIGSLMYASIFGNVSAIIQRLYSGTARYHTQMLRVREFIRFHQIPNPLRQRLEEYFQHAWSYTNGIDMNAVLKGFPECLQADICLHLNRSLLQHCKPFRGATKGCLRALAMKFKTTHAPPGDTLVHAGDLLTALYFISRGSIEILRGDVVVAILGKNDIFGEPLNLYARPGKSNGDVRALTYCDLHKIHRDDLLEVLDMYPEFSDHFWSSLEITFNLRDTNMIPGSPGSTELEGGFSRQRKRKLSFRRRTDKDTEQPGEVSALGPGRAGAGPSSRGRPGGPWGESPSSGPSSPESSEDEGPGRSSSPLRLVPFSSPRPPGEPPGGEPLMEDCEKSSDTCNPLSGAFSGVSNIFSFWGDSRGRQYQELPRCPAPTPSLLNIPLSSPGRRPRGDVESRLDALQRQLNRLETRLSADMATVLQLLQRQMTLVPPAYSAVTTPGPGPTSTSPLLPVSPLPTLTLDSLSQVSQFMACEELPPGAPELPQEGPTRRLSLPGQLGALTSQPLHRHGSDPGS

Structure (SMILES)	hERG current change (%, negative = inhibition) at 1uM
COC(=O)CSc1nnc(-c2ccc(NS(=O)(=O)c3ccccc3)cc2)o1	18.8%
Cc1ccc(CSCC(=O)N2CCN(c3ccccc3)CC2)cc1	-15.4%
COc1cc(/C(C)=N/N2CCN(c3ccccc3OC)CC2)ccc1O	0.816%
COC(=O)CN(C(=S)Nc1ccc(F)cc1)C1CC(=O)N(c2ccc(OC)cc2)C1=O (stereo not shown)	7.44%
CN1CCN2c3ccccc3CC3(C(=O)N(C)C(=O)N(C)C3=O)C2C1 (stereo not shown)	13.5%
Cc1cc(=O)oc2c1c(C)nn2-c1nn[nH]n1	-5.46%
CC(C)(CO)NS(=O)(=O)c1ccc2c(c1)C(=O)c1cc(S(=O)(=O)NC(C)(C)CO)ccc1-2	5.15%
COc1cc(C(=O)NNC(=O)CNC(=O)c2ccc(Br)o2)cc(OC)c1OC	14.9%
CC(OC(=O)/C=C/c1cccc(Cl)c1)C(=O)NC1CCCCC1C (stereo not shown)	12.9%
COc1ccc(N2CCN(C(=O)c3ccc(Cn4c(=S)[nH]c5ccc(N6CCOCC6)cc5c4=O)cc3)CC2)cc1	0.731%
Cn1cc(S(=O)(=O)N2CCCC2)cc1C(=O)NCc1ccccc1	10.4%
Nc1cc(=O)n(Cc2ccccc2)c(=O)n1-c1ccc(Cl)cc1	7.86%
COc1ccc(CC(=O)Oc2ccc(C)cc2Br)cc1S(=O)(=O)N1CCOCC1	20.3%
O=C(Cc1ccccc1)OCn1nnc2ccccc2c1=O	11.7%
CC1CN(S(=O)(=O)c2cccc(-c3csc(-c4ccccc4)n3)c2)CC(C)O1 (stereo not shown)	9.15%
Cc1oc2cc3oc(=O)c(CC(=O)N[C@@H](C)C(=O)NC(Cc4ccc(Cl)cc4)C(=O)O)c(C)c3cc2c1C (stereo partly shown)	11.6%
COC(CNC(=O)c1ccc2nc3ccccc3c(=O)n2c1)OC	8.84%
Cc1ccc(NC2CCCN(C(=O)c3ccc4nccnc4c3)C2)cc1C (stereo not shown)	2.67%
O=C(c1nn(Cc2ccccc2)c(=O)c2ccccc12)N1CCN(C/C=C/c2ccccc2)CC1	-38.3%
Cc1cc(C(=O)NNC(=S)Nc2ccccc2C)cs1	12.6%
COc1ccc(C)cc1NC(=O)CN1CCN(CC(=O)Nc2ccccc2F)CC1	-5.83%
Cc1ccc(S(=O)(=O)N2CCN(C(=O)CC(C)n3nc(C)c(Cl)c3C)CC2)cc1 (stereo not shown)	5.03%

Structure (SMILES)	hERG current change (%, negative = inhibition) at 1uM
COc1cccc(-n2c(SCC(N)=O)nnc2-c2c[nH]c3ccccc23)c1	2.62%
Cn1c(C(=O)N2CCC(C(N)=O)CC2)cc2c(=O)n(C)c3ccccc3c21	13.1%
CCC(CC)c1nnc(NC(=O)c2c(-c3ccccc3)noc2C)s1	8.89%
Cc1nc2c(-c3ccccc3)c(C)nn2c(SCC(N)=O)c1Cc1ccccc1	12.3%
COc1cc(C(=O)NCCNC(=O)c2cnccn2)cc(OC)c1OC	-7.23%
CCCn1nnnc1SCC(=O)NCc1ccc2c(c1)OCO2	5.28%
O=C1c2cccnc2C(=O)N1CNc1ccc(Cl)cc1	24.5%
Cc1ccsc1C(=O)NCCc1ccco1	12.7%
COc1cc(C(=O)N2CCN(c3cccc(C)c3C)CC2)ccc1OCC(=O)N1CCOCC1	10.8%
CCCCn1nc2cc(C(=O)NCc3ccc(C(F)(F)F)cc3C(F)(F)F)ccc2c1OCC	9.37%
N#CCCS(=O)(=O)c1ccc(N)cc1	1.38%
COc1ccc(CCNC(=O)CCOc2ccc(C(C)(C)C)cc2)cc1OC	13.8%
COc1ccccc1N1CCN(C(=O)c2cc3c(=O)n(C)c4ccccc4c3n2C)CC1	5.03%
Cc1ccc(S(=O)(=O)N2CCOCC2)cc1N/N=C(\C#N)c1nc2ccccc2[nH]1	10.1%
COc1ccc(F)cc1S(=O)(=O)Nc1ccncc1	16.4%
CCN1CCc2[nH]c3ccccc3c2C1	3.73%
CSC1=NCCN1C(=O)C12CC3CC(CC(C3)C1)C2	14.7%
O=C(C(=O)N1CCOCC1)c1cn(Cc2ccc(F)cc2)c2ccccc12	5.5%
CCOC(=O)c1sc2nc(CC(=O)OC)nc(NCc3ccc(F)cc3)c2c1C	13.9%
C=CCn1c(O)c(C(C)=Nc2ccc3c(c2)CCC3)c(=O)[nH]c1=O	7.56%
COc1ccc(OCCSc2ncccn2)cc1	3.32%
COC(=O)c1[nH]c2ccc(Cl)cc2c1NC(=O)CCN1CCN(C2CCCCC2)CC1	-69.5%

Structure (SMILES)	hERG current change (%, negative = inhibition) at 1uM
O=C(NCc1cccnc1)c1ccc(NS(=O)(=O)c2ccc(F)cc2)cc1	9.05%
Cc1c(NC(=O)/C(C#N)=C/c2ccccc2)c(=O)n(-c2ccccc2)n1C	8.78%
Cc1cc(C(=O)NNC(=O)CCCOc2ccccc2)c(C)o1	10.5%
CN(C)c1ccc(C(=O)C(=O)c2ccccc2)cc1	16.1%
O=C1CCc2cc(S(=O)(=O)NC(C(=O)NCc3cccnc3)c3ccccc3)ccc2N1 (stereo not shown)	13%
Cc1nc(NC(=O)c2ccccc2)sc1C1(C)CC(c2ccccc2F)=NO1 (stereo not shown)	11%
CCN1C(=O)C(CC(=O)Nc2ccc(OC)cc2)N(Cc2ccc3c(c2)OCO3)C1=S (stereo not shown)	-0.826%
Cc1ccc2[nH]c3c(c2c1)CN(C(=O)CN1CCCc2ccccc21)CC3	5.14%
CC(=O)c1cc(-c2ccccc2)[nH]c1N1CCOCC1	8.39%
Cc1ccccc1C(=O)NC(=S)NCc1ccccc1	7.6%
O=C(Nc1ccc(F)cc1)C1(S(=O)(=O)c2ccc(Cl)cc2)CC1	-10.9%
COc1ccc(C(=O)NCCCN2CCOCC2)cc1	4.24%
CC1CCCC(C)N1CC(O)COCc1ccccc1F.Cl (stereo not shown)	14.2%
CCOC(=O)C1CCN(C(=O)CCc2nc3ccccc3[nH]2)CC1	5.1%
CCN(CC)S(=O)(=O)c1ccc(C)c(NC(=O)CNc2cccc(S(=O)(=O)N3CCOCC3)c2)c1	-14.2%
CCOC1=NN(c2ncc(C(F)(F)F)cc2Cl)C(=O)/C1=C/N(C)C	11.3%
Cc1ccsc1C(=O)Nc1cc(C(C)(C)C)nn1-c1ccccc1	-4.93%
Cc1sc(NC(=O)c2cccnc2)nc1-c1ccccc1	20.9%
C/C(CC(=O)Nc1ccc2c(c1)OCCO2)=N\NC(=O)Cc1ccc(Cl)cc1	13.3%
CCNC(=O)CSc1nnc(-c2cccs2)o1	12.4%
CCCCNC(=S)Nc1ccc2nc(N3CCN(CC)CC3)cc(C)c2c1	-12.7%
O=C(Nc1ccc(N2CCCCC2)cc1)c1cc(S(=O)(=O)N2CCOCC2)ccc1F	-8.27%

Structure (SMILES)	hERG current change (%, negative = inhibition) at 1uM
CCOc1ccccc1N(CC(=O)Nc1ccc(OC)c(OC)c1)S(=O)(=O)c1ccccc1	9.89%
Cc1nn(-c2ccccc2)c(Cl)c1C(=O)NCc1cccs1	6.11%
CC1CCN(C(=O)CSc2ccc(-c3ccc4c(c3)OCCO4)nn2)CC1	5.8%
CC(=O)NC(C(=O)OCC(=O)N(c1ccccc1)c1ccccc1)C(C)C (stereo not shown)	11.8%
COc1ccc(NC(=O)CSc2nnc(Cc3cccs3)n2C)cc1	8.21%
CCCc1nnc(SCC(=O)Nc2nnc(CC)s2)n1CC1CCCO1 (stereo not shown)	14.6%
COc1cc(N)c(Cl)cc1C(=O)OCC(=O)NC1CCCC1	14.8%
CC(=O)NC1=NN(C(C)=O)C(C)(c2cccnc2)S1 (stereo not shown)	14.4%
CC1=C(C(=O)Nc2ccccc2C(=O)NC2CCCCC2C)SCCO1 (stereo not shown)	6.67%
COc1cc(/C=C2\SC(=O)N(c3ccc(O)cc3)C2=O)cc(OC)c1OC	8.05%
Cc1ccc(S(=O)(=O)N2CCC(C(=O)NCc3ccccc3CN3CCCC3)CC2)cc1C	-21.2%
Cc1ccc(Cn2nnc3c(=O)n(Cc4cc(C)ccc4C)cnc32)cc1	14.6%
Cn1c(C(=O)OCC(=O)NCC2CCCO2)cc2sccc21 (stereo not shown)	7.49%
COc1ccc(C2C(C(=O)Nc3ccc(OC)c(OC)c3)c3ccccc3C(=O)N2C)cc1 (stereo not shown)	12%
NC1=NC[C@@H](Cc2ccc(O)cc2)N1CC1CCCCC1	11.1%
O=S(=O)(NCc1ccccc1)c1cccc2nsnc12	8.07%
CCN(CC)C(=O)C1=C(C)NC(=S)NC1c1ccc(C)s1 (stereo not shown)	14.5%
O=S(NC1CCCCC1)C12CC3CC(CC(C3)C1)C2 (stereo not shown)	-10.6%
O=C(CCCC(=O)N1CCN(c2ccccc2F)CC1)N1CCN(c2ccccc2F)CC1	0.233%
Cc1c(O)c(CN2CCCC2)cc2c1oc(=O)c1ccccc12	7%
CSCC[C@H](NC(=O)c1cccs1)C(=O)N1CCC2(CC1)NCCc1[nH]cnc12	11%
COc1ccccc1CN1CCCC(C(=O)N2CCCCC2)C1.O=C(O)C(=O)O (stereo not shown)	16.7%

— paper PMC4336329 (PLoS ONE, 2015)
